The whole screen tested about 1,300 compounds, of which about 30 (2%) were called active. Another 10% or so got no clear call; they are omitted. Calls follow the shape of the dose curve; as a rule, active = well fitted inhibition curve with a large enough effect; inconclusive = small, poorly fitted or top-dose-only effect; inactive = flat fitted curve, though single readings scatter. Some of the results follow.
% is scaled to controls: 0 for no effect and ±100 for the full control effect.

This assay is described as follows: qHTS for antagonists of the Thyroid Stimulation Hormone Receptor: Hit Validation in HTRF Activity in a Luteinizing Hormone Receptor Cell Line. Conditions: LHR-expressing cell line, cAMP HTRF, antagonist mode; series mostly up to 58 µM; activity change, negative = inhibition: at the top concentration. Put shortly: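 Counter-screen on LH receptor–transfected HEK 293 cells: 30 min compound exposure at room temperature in medium containing 100 uM RO 20-1724 phosphodiesterase inhibitor. Cellular cAMP read by competitive HTRF after lysis with d2-cAMP and anti-cAMP antibody (330 nm excitation; 615/660 nm emission).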
Take `O=C1c2cccc3c([N+](=O)[O-])ccc(c23)C(=O)N1c1ccc(Cl)cn1`: the “activity change, negative = inhibition” value was inactive: -5.71%. The value for `COc1ccccc1CNS(=O)(=O)c1cc(-c2cc(C)no2)ccc1C(C)C` was inactive: 1.49%. The value for `O=C(Cn1nc(Cc2cccnc2)c2ccccc2c1=O)NCC1COc2ccccc2O1` (stereo not drawn) was inactive: 2.66%.

Regarding `CCOc1cc(NC(=O)C2CC2)c(OCC)cc1NC(=O)c1cccc(F)c1`, the “activity change, negative = inhibition” value is inactive: 0.0216%. The value for `O=C(Nc1cccc(F)c1)c1ccc(CSc2ccccc2)o1` was inactive: -0.61%; that for `O=C1c2ccccc2C(=O)N1CCCCSc1nnnn1-c1ccccc1` was inactive: -1.21%. The value for `COCCCn1c(=O)c2sccc2n(Cc2cccc(C)c2)c1=O` was inactive: 1.77%; that for `O=C(Nc1nc(-c2ccc(S(=O)(=O)N3CCCCCC3)cc2)cs1)c1ccccc1` was inactive: -6.65%. The value for `COCC(C)NC(=O)C1c2ccccc2Oc2ccccc21` (stereo not drawn) was inactive: -1%.

For the compound `Cc1ccc(S(=O)(=O)N2CCOCC2)cc1N/N=C(\C#N)c1nc2ccccc2[nH]1`, the “activity change, negative = inhibition” value is inactive: -0.0733%. The value for `O=C(Nc1cccc(Cl)c1)Nc1nnc(-c2ccncc2)s1` was inactive: 1.03%; that for `O=S(=O)(c1cc(C(F)(F)F)ccc1Cl)N1CCN(c2ncnc3ccccc23)CC1` was inactive: -3.64%. The value for `O=C(O)c1ccccc1NS(=O)(=O)c1cccc(-n2sc3ccccc3c2=O)c1` was inactive: -2.87%; that for `O=c1c(Sc2ccccc2)c(C(F)(F)F)[nH]n1-c1ccccc1` was inactive: 2.36%. The value for `O=c1cc(C(F)(F)F)[nH]c2ccc(OC(F)(F)F)cc12` was inactive: 0.68%. For the compound `CCOc1cc(N2CCOCC2)c(OCC)cc1NC(=O)c1cccc(S(=O)(=O)N2CCOCC2)c1`, the “activity change, negative = inhibition” value was inactive: -2.11%. The value for `O=C(NCCc1ccccc1)c1cc2ccccc2oc1=O` was inactive: -0.429%; that for `CCCCCC/C(C)=C1/SC(=S)NC1=O` was inactive: 1.84%.

Turning to `N#CC1=C(C2CC2)CC(c2ccccc2)C(C#N)=C1N` (stereo not drawn), the “activity change, negative = inhibition” value was inactive: 1.75%.

As to `Nc1ccc(C(=O)NC2CCSc3ccccc32)cc1[N+](=O)[O-]` (stereo not drawn), the “activity change, negative = inhibition” value was inactive: -1.23%. As to `NC(=O)c1ccc(CN2CCc3ccccc3C2)cc1`, the “activity change, negative = inhibition” value was inactive: 0.856%. The value for `Cc1ccc(C(=O)c2c(NC(=O)c3ccccc3)sc(C)c2C)cc1` was inactive: -1.36%; that for `Cn1nnnc1SCC1=C(C(=O)O)N2C(=O)C(NC(=O)C3CC3c3ccccc3)C2SC1` (stereo not drawn) was inactive: 0.0352%. The value for `Cc1cc(OCc2cc(C(=O)N(C)C(C)c3ccccn3)no2)cc(C)c1Cl` (stereo not drawn) was inactive: 0.705%; that for `COc1ccccc1C(=O)Nc1nnc(SCC(=O)NC2CCCC2)s1` was inactive: 2.01%; that for `Clc1ccc(CSc2nnc(CNc3cccc(Cl)c3)o2)cc1` was inactive: 0.688%. The value for `O=C(Nc1ccccc1)c1ccc(Br)c(S(=O)(=O)Nc2cccnc2)c1` was inactive: 0.736%; that for `CCOc1ccc(NS(=O)(=O)c2cc(NC(=O)c3cccc(C)c3)ccc2Cl)cc1` was inactive: -7.18%; that for `O=C(Nc1nc(-c2ccc(Cl)cc2Cl)cs1)c1ccc(OCC2CCCO2)cc1` (stereo not drawn) was inactive: -6.16%. As to `COc1ccc2nc(NC(=O)c3ccccc3[N+](=O)[O-])sc2c1`, the “activity change, negative = inhibition” value was inactive: -1.2%. The value for `Cc1nn(Cc2ccccc2)c(C)c1NC(=O)c1noc2c1CCc1ccccc1-2` was inactive: -2.93%. The value for `Cc1ccccc1-n1nnnc1SC1CCOC1=O` (stereo not drawn) was inactive: 0.689%; that for `O=C(O)c1ccc(CNC(=O)c2ccc3c(c2)C(=O)N(Cc2cccnc2)C3=O)cc1` was inactive: 1.33%. Turning to `O=C(c1ccco1)N1N=C(C2CCCCC2)CC1(O)C(F)(F)F` (stereo not drawn), the “activity change, negative = inhibition” value was inactive: 0.572%.

For the compound `O=C(Nc1cc(Sc2nc3ccccc3s2)cc([N+](=O)[O-])c1)c1ccccc1F`, the “activity change, negative = inhibition” value is inactive: 0.335%. The value for `C#C[C@]1(OC(C)=O)CCC2C3CCC4=CC(=O)CC[C@@H]4C3CC[C@@]21C` (stereo partly drawn) was inactive: -2.02%; that for `Cc1ccc(-n2[nH]c(C)c(/C=N/Nc3ccc([N+](=O)[O-])cc3[N+](=O)[O-])c2=O)cc1` was inactive: -2.45%; that for `CSc1nc(N)nc(SCC(=O)Nc2ccc(Cl)cc2)c1C#N` was inactive: 0.0426%. The value for `CC(C)OCCCn1c(=O)c2ccccc2n2c(CCC(=O)NC3CCN(Cc4ccccc4)CC3)nnc12` was inactive: -0.254%; that for `O=C(NC1CCCCC1)c1cc(-c2ccccc2O)on1` was inactive: -0.0782%; that for `CC1CCN(S(=O)(=O)c2cccc(C(=O)N3CCN(c4ccc(F)cc4)CC3)c2)CC1` was inactive: -1.37%. As for `CS(=O)(=O)c1ccc(N2CCN(c3ccccn3)CC2)c([N+](=O)[O-])c1`, the “activity change, negative = inhibition” value is inactive: 1.26%. Take `CCc1ccccc1NC(=O)C1CCCN(S(=O)(=O)c2ccc3c(c2)CC(C)N3C(C)=O)C1` (stereo not drawn): the “activity change, negative = inhibition” value was inactive: 2.07%. The value for `CCCC(=O)Nc1nnc(CCc2ccccc2)s1` was inactive: 2.59%. The value for `CCOC(=O)c1c(S(=O)(=O)NCC(=O)Nc2cccc(C)c2C)c(C)n(C)c1C` was inactive: 3.52%; that for `O=c1/c(=C/c2ccc(O)c([N+](=O)[O-])c2)sc2nc3ccccc3n12` was inactive: -0.441%. The value for `CS(=O)(=O)c1nc(-c2ccc(Br)cc2)cc(-c2ccccc2)c1C#N` was inactive: -2.1%; that for `N#Cc1ccc(Nc2nc(-c3ccc(O)cc3O)cs2)cc1C(F)(F)F` was inactive: -3.26%. With `CCOC(=O)c1c(NC(=O)/C=C/C(=O)O)sc(C)c1-c1ccc(Cl)cc1`, the “activity change, negative = inhibition” value is inactive: -0.895%.

For `CS(=O)(=O)Cc1ccc(C(=O)Nc2cccc(-c3nc4ccccc4[nH]3)c2)cc1`, the “activity change, negative = inhibition” value is inactive: 0.454%. Turning to `O=C(NCc1ccccc1)c1c(Cl)nc(Cl)c(Cl)c1Cl`, the “activity change, negative = inhibition” value was inactive: -4.21%.

Turning to `O=C1CSc2nc3ccccc3n21`, the “activity change, negative = inhibition” value was inactive: 1.12%. The value for `COc1ccc(-n2c(SCC(=O)Nc3cc(C)on3)nc3c(c2=O)SCC3)cc1OC` was inactive: 1.39%.

The values above are taken from PubChem BioAssay AID602293 (National Center for Advancing Translational Sciences (NCATS), 2012).
